Data taken from PubChem BioAssay AID463173 (ICCB-Longwood Screening Facility, Harvard Medical School, 2010).
Hit rate of the full screen: of about 52,000 compounds, about 1,700 (3.3%) were called active. Rule as the data show it: active = survival mostly below about 52% (no sharp cut-off); inactive = mostly above about 56%. The list shows a part of the results.

system: Wild type; assay: S. aureus survival, RN4220 and DeltatarO strains – OD600, teichoic acid synthesis inhibitors, primary screen (AID 463173); details: S. aureus RN4220 wild type/DeltatarO growth, OD600, 18 h, hits give low values; concentration not given here unless noted

SMILES | survival
CC(C)NC(C)C(=O)c1ccc2ccccc2c1 (stereo not drawn) | inactive: 109%
CN1C(=C2C(=O)NC(=O)NC2=O)Sc2ccccc21 | inactive: 106%
Cc1nnc(NC(=O)c2cccn(Cc3cccc(F)c3)c2=O)s1 | inactive: 71%
Cc1ccc(OCC(=O)Nc2ccc(Cl)cc2C(=O)c2ccccc2)cc1C | inactive: 75%
COc1ccc(CN2CCN(Cc3ccccc3)CC2)cc1 | inactive: 105%
CCN(CC)c1ccc2c3c(c(=O)oc2c1)C(c1cc2c(C)cc(C)cc2[nH]c1=O)C(C#N)=C(N)O3 (stereo not drawn) | inactive: 81%
COc1cccc(-c2nn3c(=O)cc(CN4CCN(C(=O)COc5ccccc5C)CC4)nc3s2)c1 | inactive: 74%
CCOc1ccc2nc(NC(=O)c3cccn(Cc4ccccc4Cl)c3=O)sc2c1 | inactive: 68%
CCOc1ccc(CN(CCc2ccc3c(c2)OCO3)Cc2ccc(OC)c(Br)c2)cc1 | inactive: 67%
C[N+]12CN3CN(CN(C3)C1)C2 | inactive: 112%
Cn1c(O)c(C=Nc2ccccc2)c(=O)n(C)c1=O | inactive: 99%
Nc1c2c(nc3sc4c(c13)CCCC4)CCCC2 | inactive: 118%
Cc1ccccc1CN1C(=O)C(C)N=C(c2ccccc2)c2ccccc21 (stereo not drawn) | inactive: 68%
CCc1ccc(OCC(=O)N2CCN(CCc3ccncc3)CC2)cc1 | inactive: 107%
Cn1cccc1CNCCc1ccccc1 | inactive: 110%
Cc1cccc2cc(C=C(C#N)C#N)c(Cl)nc12 | inactive: 93%
Cc1ccc(C(C)C)c(OCC(=O)N2CCN(CCc3ccncc3)CC2)c1 | inactive: 76%
CCOc1ccc(CN(CCc2ccc3c(c2)OCO3)Cc2cc(OC)ccc2O)cc1 | inactive: 55%
O=C1NC(=O)C(CCc2ccncc2)(CCc2ccncc2)C(=O)N1C1CCCCC1 | inactive: 96%
Cc1ccc(NC(=O)N(Cc2ccc3c(c2)OCO3)C2CCN(Cc3ccccc3)CC2)cc1C | active: -1%
Cc1cc(OCC(=O)N2CCN(CCc3ccncc3)CC2)ccc1Cl | inactive: 85%
CSc1ccc(/C=C/c2nc3ccccc3c(=O)n2-c2cccc(Cl)c2C)cc1 | inactive: 74%
N#Cc1cc2c(nc1SCC(=O)Nc1ccc(C(F)(F)F)cc1)C1CCN2CC1 | active: 0%
COc1ccc(-n2c(/C=C\c3ccccc3F)nc3ccccc3c2=O)c(OC)c1 | inactive: 68%
CC(C)c1ccc(OCC(=O)N2CCN(CCc3ccncc3)CC2)cc1 | inactive: 81%
CCN1CCN(Cc2ccccc2C#N)CC1 | inactive: 106%

SMILES | survival
CCc1cccc(NC(=O)CN2C(=O)CN=C(c3ccccc3F)c3cc(Cl)ccc32)c1 | inactive: 83%
COc1ccc(OC)c(C(c2c(O)c3ccccc3oc2=O)c2c(C)n(C)n(-c3ccccc3)c2=O)c1 (stereo not drawn) | inactive: 64%
Cc1ccc2c(c1)C1CN(C)CCC1N2 (stereo not drawn) | inactive: 118%
O=c1c2ccccc2nc(-c2ccco2)n1-c1ccc(Cl)cc1 | inactive: 112%
CCCCn1c(C)c(C(=O)OCC)c2cc(OC)ccc21 | inactive: 110%
O=C1CCCN1C(=O)c1cc(Cl)cc(Cl)c1 | inactive: 119%
Cc1cccc(Cn2cccc(C(=O)Nc3cc(C)on3)c2=O)c1 | inactive: 73%
OC1CCNC2CCCCC12 (stereo not drawn) | inactive: 83%
Cc1nc2ccccc2c(=O)n1-c1cccc(O)c1 | inactive: 93%
CSc1ccc(CN2CCN(C(=O)COc3cccc(C)c3)CC2)cc1 | inactive: 55%
Cc1cccnc1-n1c(C)nc2ccccc2c1=O | inactive: 98%
Cc1cccc(-n2c(/C=C/c3c[nH]c4ccccc34)nc3ccccc3c2=O)c1 | inactive: 20%
COc1ccc(-c2nc(CN3C(=O)CN=C(c4ccccc4)c4ccccc43)c(C)o2)cc1 | inactive: 93%
CN(C)c1ccc(/C=C2/C(=O)C3CCN2CC3)cc1 | inactive: 104%
COc1ccc(C2(CN)CCOCC2)cc1 | inactive: 95%
COc1ccc(C=C2C(=O)N(C)C(=O)N(C)C2=O)cc1 | inactive: 98%
Cc1cc(NC(=O)c2cccn(Cc3ccccc3)c2=O)no1 | inactive: 72%
CCCC1=Nc2cc(C(=O)NC3CCC(C)CC3)ccc2Sc2ccccc21 (stereo not drawn) | inactive: 40%
O=C(CN1C(=O)CN=C(c2ccccc2)c2ccccc21)Nc1cccc(C(F)(F)F)c1 | inactive: 48%
Cc1cccc2sc(NC(=O)c3cccn(Cc4ccccc4)c3=O)nc12 | inactive: 78%
CN1CCc2c(C#N)c(N)n(N)c(=S)c2C1 | inactive: 96%
N#CC(C#N)=Cc1ccc(Sc2ccccc2)o1 | inactive: 107%
CC(C)n1cc(C(=O)N(C2CC2)C(C(=O)NC2CCCC2)c2ccccc2)cn1 (stereo not drawn) | inactive: 101%
CNCCCc1ccccc1 | inactive: 106%
CC(N)Cc1cn(Cc2ccccc2)c2ccccc12 (stereo not drawn) | inactive: 120%
Nc1c(C(=O)Nc2cccc(Br)c2)sc2nc3c(cc12)N1CCC3CC1 | inactive: 63%

SMILES | survival
c1cncc(C2CCCCN2Cc2ccc3c(c2)OCO3)c1 (stereo not drawn) | inactive: 111%
c1coc(CN2CCNCC2)c1 | inactive: 106%
COC1CCCCC1NC1CCCC1 (stereo not drawn) | inactive: 92%
CN1CCc2c(C#N)c(Cl)nc(NCc3ccccc3)c2C1 | inactive: 103%
O=C1C2CN3CN(C2)CC1(c1ccccc1)C3 | inactive: 105%
CCOc1ccc(CN(CCc2ccc3c(c2)OCO3)Cc2cccc(C)c2)cc1 | inactive: 40%
Cc1cc(OCC(=O)N2CCN(CCc3ccccn3)CC2)cc(C)c1Cl | inactive: 80%
CCOC(=O)C1=C(C)OC(N)=C(C#N)C12C(=O)N1c3c(cccc32)C(C)CC1(C)C (stereo not drawn) | inactive: 126%
OCCCCNC1CCCCC1 | inactive: 98%
CCN(CC)C(=O)c1ccc(NC(=O)CCn2nc(-c3ccc(C)cc3)c3ccccc3c2=O)cc1 | inactive: 64%
Cc1cccc(C2CC(=O)Oc3c2c(=O)oc2ccccc32)c1 (stereo not drawn) | inactive: 144%
COc1ccc(CN2CCN(C(=O)COc3ccccc3)CC2)c(OC)c1 | inactive: 151%
CC(c1ccccc1)n1cncc1C(=O)N1CCCC1=O (stereo not drawn) | inactive: 103%
CCN(CC)C(=O)c1ccc(NC(=O)CCn2nc(-c3ccc(Cl)cc3)c3ccccc3c2=O)cc1 | inactive: 66%
CN1C(=O)C(Cc2cccs2)C(=O)N(C)C1=O | inactive: 107%
O=C1NC(=S)NC(=O)C1C1CCCCC1 | inactive: 99%
CC(C)C(=O)c1cn(Cc2ccccc2C#N)c2ccccc12 | inactive: 115%
COC(=O)c1ccc(NC(=O)c2cccn(Cc3ccccc3C)c2=O)cc1 | inactive: 88%
O=S1(=O)N(Cc2ccccc2)CCCN1Cc1ccc(F)cc1Cl | inactive: 76%
Cc1ccc(OCC(=O)Nc2ccc(Cl)cc2C(=O)c2ccccc2)cc1 | inactive: 64%
O=C(Nc1ccc(Br)cc1C(=O)c1ccccc1)c1ccccc1 | active: -1%
CCN(CC)Cc1c[nH]c2ccccc12 | inactive: 105%
CC1CC2(O)c3no[n+]([O-])c3CCC2N1O (stereo not drawn) | inactive: 109%
CCOC(=O)c1ccc(NC(=O)c2sc3nc4c(cc3c2N)N2CCC4CC2)cc1 | inactive: 84%
COc1ccc(OCC(=O)N2CCN(Cc3cccc(OC)c3OC)CC2)cc1 | inactive: 135%
Cc1cc(C)cc(OCC(=O)Nc2ccc(Cl)cc2C(=O)c2ccccc2)c1 | inactive: 73%

SMILES | survival
C1CNC2NCCNC2N1 (stereo not drawn) | inactive: 125%
Nc1nonc1C1=NOC(c2nonc2N)=NO1 | inactive: 98%
Cc1n[nH]c(C)c1CCN | inactive: 108%
CCCCCn1c(=O)c(C(=O)Nc2ccccc2S(N)(=O)=O)c(O)c2ccccc21 | active: 0%
COc1ccccc1NC(=O)N(Cc1ccc2c(c1)OCO2)C1CCN(Cc2ccccc2)CC1 | inactive: 78%
Cc1cc(N)n(C2CCN(C)CC2)n1 | inactive: 103%
Cc1cccc(-n2c(/C=C/c3c(C)[nH]c4ccccc34)nc3ccccc3c2=O)c1 | inactive: 108%
Nc1c(C(=O)Nc2ccc(Br)cc2F)sc2nc3c(cc12)N1CCC3CC1 | inactive: 134%
COc1cc(C(c2c(O)c3ccccc3oc2=O)c2c(C)n(C)n(-c3ccccc3)c2=O)ccc1OCC(=O)O (stereo not drawn) | inactive: 95%
O=C(Nc1ccc(Cl)cc1C(=O)c1ccccc1)c1ccccc1Br | active: 5%
N#CC(C#N)=Cc1cc(Br)cs1 | inactive: 94%
Cc1c(Cl)cccc1NC(=O)CN1C(=O)C(C)N=C(c2ccccc2)c2ccccc21 (stereo not drawn) | inactive: 93%
O=C(CN1CCCC1=O)NCCc1ccccc1 | inactive: 101%
O=C(c1ccc2ccccc2c1)C12CN3CN(CN(C3)C1)C2 | inactive: 86%
Cn1cc(/C=C/c2nc3ccccc3c(=O)n2-c2ccccc2)c2ccccc21 | inactive: 72%
O=C(Nc1ccc2c(c1)OCO2)c1cccn(Cc2cccc(F)c2)c1=O | inactive: 72%
Nc1c(C(=O)Nc2ccc(Cl)cc2)sc2nc3c(cc12)N1CCC3CC1 | inactive: 95%
COc1cc(C(c2c(O)c3ccccc3oc2=O)c2c(C)n(C)n(-c3ccccc3)c2=O)ccc1O (stereo not drawn) | inactive: 62%
CC1=CC(=O)C2=C(C)CC(O)C3C(C)C(=O)OC3C12 (stereo not drawn) | inactive: 117%
CN1CCN(c2oc(-c3ccc(COc4ccccc4)o3)nc2C#N)CC1 | inactive: 72%
O=c1c2ccccc2nc(/C=C/c2ccccc2)n1-c1ccccc1F | inactive: 97%
Cc1nnc(NC(=O)c2cccn(Cc3cccc(Cl)c3)c2=O)s1 | inactive: 70%
COc1ccc(CN2C(=O)CC(=O)NC2=S)cc1 | inactive: 107%
Cc1cccc(CSc2nc3c(cc2C#N)CN(C)CC3)c1 | inactive: 114%
CCCC12CN3CC(CCC)(CN(C1)C3c1ccccn1)C2=O (stereo not drawn) | inactive: 84%
